Source: PMC6634424
Substitutions are numbered along the chain they refer to. Results are given in words; binding and its absence hold for the method and conditions named. Some results given as binding are weak or reduced against the parent protein; the word gives no strength.

T1: ZED1^wt (Arabidopsis thaliana) (UniProt Q8LGB6)
T1 sequence: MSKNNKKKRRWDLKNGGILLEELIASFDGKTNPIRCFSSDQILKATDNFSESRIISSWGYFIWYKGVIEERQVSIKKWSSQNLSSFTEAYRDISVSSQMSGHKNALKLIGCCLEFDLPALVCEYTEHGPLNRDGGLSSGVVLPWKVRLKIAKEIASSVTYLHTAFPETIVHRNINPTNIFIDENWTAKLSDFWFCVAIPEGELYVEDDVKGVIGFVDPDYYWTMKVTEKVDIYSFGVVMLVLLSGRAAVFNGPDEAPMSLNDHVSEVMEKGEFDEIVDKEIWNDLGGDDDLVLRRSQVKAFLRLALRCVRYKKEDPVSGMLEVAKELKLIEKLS

T2: ZED1^W193G (Arabidopsis thaliana) (UniProt Q8LGB6)
T2 sequence: T1 sequence with W193G

T3: ZED1^N173D (Arabidopsis thaliana) (UniProt Q8LGB6)
T3 sequence: T1 sequence with N173D

T4: ZED1^V212T (Arabidopsis thaliana) (UniProt Q8LGB6)
T4 sequence: T1 sequence with V212T

T5: ZRK1/RKS1 (Arabidopsis thaliana) (UniProt Q9SVY5)
T5 sequence: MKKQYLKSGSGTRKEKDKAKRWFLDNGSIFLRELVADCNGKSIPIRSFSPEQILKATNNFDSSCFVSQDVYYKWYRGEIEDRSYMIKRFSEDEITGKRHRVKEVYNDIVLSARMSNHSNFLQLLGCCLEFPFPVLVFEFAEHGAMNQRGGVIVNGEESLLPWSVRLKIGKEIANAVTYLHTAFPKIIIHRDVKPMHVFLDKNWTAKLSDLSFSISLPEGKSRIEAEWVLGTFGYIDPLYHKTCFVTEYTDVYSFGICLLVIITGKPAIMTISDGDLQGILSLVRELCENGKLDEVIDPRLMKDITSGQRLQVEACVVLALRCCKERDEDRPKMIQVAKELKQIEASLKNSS

T6: ZED1^(N173D W193G) (Arabidopsis thaliana) (UniProt Q8LGB6)
T6 sequence: T1 sequence with N173D, W193G

T7: ZED1^‘EDG’ (Arabidopsis thaliana) (UniProt Q8LGB6)
T7 sequence: T1 sequence with D92E, N173D, W193G

B1: PBL17 (protein, UniProt Q8H1E3 1-442)
chain: MGICFSAEDQHYQFSQQQNYPKKTTPGKKAAVYLMKSDCEDVVGKVSGSGSGGGGLPLAPKNIKDLQSNPGYENVDIFTYEEMKIATKQFRPDYILGEGGFGVVYKGVIDESVRVGFKSTKVAIKELNPEGFQGDREWLAEVNYLGQLSHPNLVKLIGYCCEDDHRLLVYEYMAMGSLEKHLFRRVGCTLTWTKRMKIALDAAKGLAFLHGAERSIIYRDLKTANILLDEGYNAKLSDFGLAKDGPRGDQTHVSTRVMGTYGYAAPEYVMTGHLTSRSDVYGFGVLLLEMLLGKRAMDKSRACREHNLVEWARPLLNHNKKLLRIIDPRMDGQYGTKALMKVAGLAYQCLSQNPKGRPLMNHVVEVLETLKDDGDAQEEVMTNLHSRGKSVTLYEASSDSQGTRDGNGQRRRRPESGRSKSEAAVDTEKYVSTLSEPDTTKI
B2: PBL15 (protein, UniProt Q9SY91 1-424)
chain: MRDSSTTASTKSSPLWKPFASNCCSVDDQTVFGNLSRCRPSRSEFSKNHLGPLPSFRRLSFADLSRSSSARINEDLAQTLGADLVDFQMCELKMITQSFSGNYLLGEGGFGKVYKGYVDDYLRQSLKAQPVAVKLLDIEGLQGHREWLSEVIFLGQLKHPNLVKLIGYCCEEEERVLIYEFMPRGSLENHLFRRISLSLPWATRLKIAVAAAKGLAFLHDLESPIIYRDFKTSNILLDSDFTAKLSDFGLAKMGPEGSKSHVTTRVMGTYGYAAPEYVSTGHLTTKSDVYSYGVVLLELLTGRRATEKSRPKNQQNIIDWSKPYLTSSRRLRCVMDPRLAGQYSVKAAKDTALLALQCVSPNPKDRPKMLAVVEALESLIHYKDMAVSSGHWPLSPKSQGGKVSPKVRGDHRSGRKSAPGSLRS
B3: PBL27 (protein, UniProt Q1PDV6 1-513)
chain: MSGCLPCFGSSAKDAASKDSVKKELSAKDGSVTQSHHISLDKSKSRRGPEQKKELTAPKEGPTAHIAAQTFTFRELAAATKNFRPECLLGEGGFGRVYKGRLETTGQIVAVKQLDRNGLQGNREFLVEVLMLSLLHHPNLVNLIGYCADGDQRLLVYEYMPLGSLEDHLHDLPPDKEPLDWSTRMTIAAGAAKGLEYLHDKANPPVIYRDLKSSNILLGDGYHPKLSDFGLAKLGPVGDKTHVSTRVMGTYGYCAPEYAMTGQLTLKSDVYSFGVVFLELITGRKAIDNARAPGEHNLVAWARPLFKDRRKFPKMADPSLQGRYPMRGLYQALAVAAMCLQEQAATRPLIGDVVTALTYLASQTFDPNAPSGQNSRSGSGPPFIRTRDDRRSLGDGSSLDSPAETRSRLGSPATHKNSPDYRRRDMVREVNAGSEGGSETGGGSGRKWGLSDLEGQESQRGSPASVGRSSRGTPRNRDLDRERAVAEAKVWGENWRERKRATNGPGSFDSTND
B4: PBL4 (protein, UniProt Q5PP29 1-412)
chain: MGNCFGFSAKVGNRESPYRGSSRISAKRSQSSRLSSLTIQSSSYNDDTSVASLQTPRSEGELLASPTLKAFTFNELKTATRNFRPDSVIGEGGFGYVYKGWIDERTLSPSKPGSGMVVAVKKLKEEGFQGHRQWLAEVDCLGRLHHMNLVKLIGYCSKGDHIRLLVYEYMPKGSLENHLFRRGAEPIPWRTRIKVAIGAARGLAFLHEAQVIYRDFKASNILLDSEFNAKLSDFGLAKVGPTGDRTHVSTQVMGTQGYAAPEYVATGRITAKSDVYSFGVVLLELLSGRLTVDKTKVGVERNLVDWAIPYLGDKRKVFRIMDTKLGGQYPHKGACLTANTALQCLNQEPKLRPKMSDVLSTLEELEMTLKSGSISNSVMKLTSSSSSFTAKQRVRTPVADPVLSSRRCRRVR
B5: PBL24 (protein, UniProt Q1PE89 1-389)
chain: MSCFLGPSTNNKSRENEGSSMAAPYEQQNLPRNDRRQITTWEAVGTNKESPKNIKAKSFKFRELATATNSFRQEFLIGEGGFGRVYKGKMEKTGQVVAVKQLDRNGLQGNREFLVEIFRLSLLHHPNLANLIGYCLDGDQRLLVHEFMPLGSLEDHLLDVVVGQQPLDWNSRIRIALGAAKGLEYLHEKANPPVIYRDFKSSNILLNVDFDAKLSDFGLAKLGSVGDTQNVSSRVVGTYGYCAPEYHKTGQLTVKSDVYSFGVVLLELITGKRVIDTTRPCHEQNLVTWAQPIFREPNRFPELADPLLQGEFPEKSLNQAVAIAAMCLQEEPIVRPLISDVVTALSFMSTETGSPSGLTGTALNPLSPKTVEDQGWLQCESPRDVYSLL
B6: PBL18 (protein, UniProt Q5XF79 1-387)
chain: MGNCLDSSARVGNRESTFGGSSRISRKPNQSSRLSSLTIPSYSNNSFTTSSWSNLTPRSEGELLPSPTLKAFTFNELKTATRNFKPNSMIGEGGFGCVYKGWIGERSLSPSKPGSGMVVAVKKLKSEGFQGHKEWLTEVHYLGRLHHMNLVKLIGYCLEGEKRLLVYEYMPKGSLENHLFRRGAEPIPWKTRMKVAFSAARGLSFLHEAKVIYRDFKASNILLDVDFNAKLSDFGLAKAGPTGDRTHVTTQVIGTQGYAAPEYIATGRLTSKSDVYSFGVVLLELLSGRPTLDKSKVGVERNLVDWAIPYLVDRRKVFRIMDTKLGGQYPHKGACAAANIALRCLNTEPKLRPDMADVLSTLQQLETSSKKMGSTQNIVMSPSSHMS

Legend:
[1] = target: T1, ZED1^wt (Arabidopsis thaliana); test: two-hybrid; Y3H: LexA-ZED1 bait, 46 PBL preys, HopZ1b expressed from the ho locus
[2] = target: T1, ZED1^wt (Arabidopsis thaliana); test: two-hybrid; Y3H: LexA-ZED1 (wt or mutant) bait, PBL (wt or mutant) preys, HopZ1a^wt expressed from the yeast ho locus
[3] = target: T2, ZED1^W193G (Arabidopsis thaliana); test: two-hybrid; Y2H: LexA-ZED1 (wt or mutant) bait, PBL (wt or mutant) preys, no effector; X-Gal reporter plates, 30°C
[4] = target: T3, ZED1^N173D (Arabidopsis thaliana); test: as above
[5] = target: T4, ZED1^V212T (Arabidopsis thaliana); test: as above
[6] = target: T5, ZRK1/RKS1 (Arabidopsis thaliana); test: two-hybrid; Y2H: LexA-ZRK1/RKS1 bait, 46 PBL preys, no AvrAC; X-Gal reporter plates, 30°C
[7] = target: T6, ZED1^(N173D W193G) (Arabidopsis thaliana); test: two-hybrid; Y2H: LexA-ZED1 (wt or mutant) bait, PBL (wt or mutant) preys, no effector; X-Gal reporter plates, 30°C
[8] = target: T7, ZED1^‘EDG’ (Arabidopsis thaliana); test: as above

Binder	binding [1]	binding [2]	binding [3]	binding [4]	binding [5]	binding [6]	binding [7]	binding [8]
B1	binds	binds	binds	binds	binds	binds	–	–
B2	binds	binds	binds	binds	binds	binds	–	–
B3	binds	binds	binds	binds	binds	–	–	–
B4	–	binds	binds	binds	binds	–	–	–
B5	–	binds weakly	–	–	–	–	binds	binds
B6	–	binds weakly	binds	binds	binds	–	–	–
